# Test results: PubChem BioAssay AID686979 (National Center for Advancing Translational Sciences (NCATS), 2013)
# Among all 420,000 compounds or so, about 50,000 (12%) were called active. Inconclusive means that the source gave no clear call. Such entries were picked first, then a sample of the others. The call rests on the fitted dose curve; in most records, active means well fitted inhibition curve with a large enough effect; inconclusive means small, poorly fitted or top-dose-only effect; inactive means flat fitted curve, though single readings scatter. Potencies of inconclusive entries are left out as doubtful fits.
# Test: qHTS for Inhibitors of human tyrosyl-DNA phosphodiesterase 1 (TDP1): qHTS in cells in presence of CPT; further: nearly all actives have a fitted effect of over 55% in size
# Conditions: chicken DT40 Tdp1-/-;hTDP1 cells + 20 nM CPT, ATP luminescence, 48 h; activity change, negative = growth inhibition: at 46.2 µM (top of the series) unless noted
# Procedure, shortened: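 Chicken DT40 Tdp1-/- cells stably complemented with human TDP1 were seeded at 400 cells/well in medium containing 20 nM camptothecin, exposed to pin-transferred compounds, and grown at 37 °C for at least 48 hr. Viability was read as ATP luminescence.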
# On the % scale 0 is the no-effect control and ±100 the full control effect; potency means the concentration at half of the fitted maximal effect; tags describe the fitted curve by direction and shape.
Compound,Potency,"activity change, negative = growth inhibition"
O=C(Oc1ccccc1C(=O)N1CCOCC1)c1ccc(Br)cc1,"inconclusive [inhibitor, single point]",–
O=C(NCc1c(Cl)cccc1Oc1ccccc1)c1ccccc1,"inconclusive [inhibitor, single point]",–
CC(CCc1ccc(O)cc1)NC1c2ccccc2-c2ccccc21 (stereo not drawn),"inconclusive [inhibitor, single point]",–
N#Cc1ccc(OCC(O)CS(=O)(=O)c2ccccc2)cc1 (stereo not drawn),–,inactive: 1.71%
O=C(O)c1cccc(NC(=O)C2CC(=O)N(Cc3ccccc3)C2)c1 (stereo not drawn),–,inactive: 9.99%
CCN(CC)C(C(=O)Nc1ccc(C(C)C)cc1)c1ccc2c(c1)OCO2 (stereo not drawn),"inconclusive [inhibitor, single point]",–
S=c1nc[nH]c2c1ncn2C1CCCO1 (stereo not drawn),–,inactive: -20%
CC1=C(C(=O)NCc2cccc(F)c2)C2(CCCCC2)OC1=O,–,inactive: -24.8%
NCCCCCCNS(=O)(=O)c1ccc2c(Cl)cccc2c1,active: 13.3 µM,–
COc1ccc2sc(-c3ccc(SC)cc3)c(-c3ccc(O)cc3)c2c1,"inconclusive [inhibitor, single point]",–
CC1CCCC(NC(=O)Cn2c(Cl)nc3c2c(=O)n(C)c(=O)n3C)C1C (stereo not drawn),"inconclusive [inhibitor, partial curve]",–
O=C(CCc1nc(-c2ccc(F)cc2)no1)NCc1ccccc1CN1CCOCC1,"inconclusive [inhibitor, single point]",–
CC(C)CN1C(=O)NC(NC(=O)c2ccco2)(C(F)(F)F)C1=O (stereo not drawn),–,inactive: 3.56%
O=C(COc1ccc(F)cc1)Nc1nc(-c2ccccn2)cs1,active: 7.31 µM,–
Cc1ccc(-c2ccc(CN3C(C)C(=O)N(Cc4cn(CCC5OCCCO5)nn4)CCS3(=O)=O)cc2)cc1 (stereo not drawn),"inconclusive [inhibitor, single point]",–
Fc1ccc(Nc2ccnc(C(F)(F)F)c2)cc1,"inconclusive [inhibitor, single point]",–
S=C(Nc1ccccc1Cl)N1CCC(c2ccccc2)C1 (stereo not drawn),–,inactive: 15.2%
Clc1cccc(-c2nc3ccc(Br)cn3c2Cc2ccccc2)c1,"inconclusive [inhibitor, single point]",–
CC(=O)Nc1cc(-c2ccc(CO)cc2)cn2c(-c3ccc(F)cc3)cnc12,active: 16.4 µM,–
CCOC(=O)c1c(C)oc2nc(C)nc(NCC3CCN(Cc4ccc(C)cc4)CC3)c12,"inconclusive [inhibitor, single point]",–
COC(=O)c1cc(S(=O)(=O)N2c3ccccc3CC2C)c[nH]1 (stereo not drawn),"inconclusive [inhibitor, single point]",–
Cc1ccccc1CSc1cn(CC(=O)N2CCCCC2)c2ccccc12,active: 13 µM,–
CCOC(=O)/C(C#N)=C/c1cc(C)n(-c2ccc(C)cc2)c1C,active: 18.4 µM,–
CC(=O)c1ccc(OC2(C)CCN(Cc3ccccc3OC(F)F)C2)cc1 (stereo not drawn),"inconclusive [inhibitor, single point]",–

Compound,Potency,"activity change, negative = growth inhibition"
COc1ccc(C(=O)CSc2nnc(CCc3ccccc3)n2-c2ccccc2)cc1,active: 16.4 µM,–
O=C(Nc1cccc(C(F)(F)F)c1)c1cnn(-c2cccc(F)c2)c1C1CCNCC1,"inconclusive [inhibitor, single point]",–
O=C(OCCN1C(=O)c2ccccc2C1=O)Oc1ccccc1,–,inactive: -3.35%
O=C(CN=C1NS(=O)(=O)c2ccccc21)OCC(=O)c1ccccc1,–,inconclusive: -24.1% [inhibitor]
Cc1ccc(CN2C(=O)S/C(=C\c3ccccc3OCC(=O)O)C2=O)cc1,–,inactive: 6.82%
COc1ccc(C(C)(C)C)cc1NC(=O)C1CC(=O)N(C2CCCC2)C1 (stereo not drawn),"inconclusive [inhibitor, single point]",–
CCOC(=O)c1csc(CCNC(=O)c2oc3c(Cl)cc(C)cc3c2C)n1,"inconclusive [inhibitor, single point]",–
Cc1nn(C)cc1CN(C)C(=O)c1cc(-c2ccccc2)nc2ccc(Br)cc12,active: 16.4 µM,–
CN(C)CCCN1C(=O)c2oc3ccc(Cl)cc3c(=O)c2C1c1cccnc1 (stereo not drawn),–,inactive: 5.49%
CN1CCN(C(=O)C2Cc3c(-c4ccc5c(c4)OCO5)ccnc3O2)CC1 (stereo not drawn),–,inactive: -20.9%
CC(C)C[C@@H](NC(=O)C1CCC(CNC(=O)[C@H](Cc2ccccc2)NC(=O)OC(C)(C)C)CC1)C(=O)O (stereo partly drawn),–,inactive: 44.3%
O=C(Nc1ccc(Cl)cc1F)C1CC1,–,inactive: -21.8%
COc1ccccc1[C@@H]1C(c2cccc(Cl)c2)=NN(c2ccc(Br)cc2)[C@H]1C(=O)N1CCOC1=O,"inconclusive [inhibitor, single point]",–
CC(C)C[C@H](NC(=O)NCc1ccc(F)cc1)C(=O)O,–,inactive: -15.8%
O=C(CCNC(=O)c1ccc([N+](=O)[O-])cc1)NC1CCCc2ccccc21 (stereo not drawn),–,inactive: 2.48%
CCOC(=O)C(C)(C)N(Cc1ccccc1C)S(=O)(=O)c1ccc(Cl)c([N+](=O)[O-])c1,"inconclusive [inhibitor, single point]",–
COc1cc(C(=O)NCCOc2ccccc2)cc(OC)c1OC,–,inactive: 26.9%
CCOc1ccc(CCNC(=O)c2oc(=O)c3ccccc3c2-c2ccc(C)cc2)cc1OCC,"inconclusive [inhibitor, single point]",–
O=C(C1=C[C@@H](c2ccc(C(F)(F)F)cc2)C[C@@H](OCCCCO)O1)N1CCN(Cc2ccc3c(c2)OCO3)CC1,active: 18.4 µM,–
COc1cccc(-c2cnc(-c3ccncc3)nc2C2CCN(C(=O)Cc3csc(C)n3)CC2)c1,–,inactive: -1.84% [at 9.04 µM]
COc1cnc(-c2ccccn2)nc1Sc1cccc(Cl)c1,active: 1.3 µM,–
C/C(=N\NS(=O)(=O)c1ccc(Cl)c([N+](=O)[O-])c1)c1cc2ccccc2o1,–,inactive: -13.1%
C[C@H]1CN([C@@H](C)CO)C(=O)c2cc(C#CC3(O)CCCC3)cnc2O[C@H]1CN(C)C(=O)C1CC1,–,inactive: 9.6%
O=C(NCc1ccccc1)C1=C[C@H](c2ccc3c(c2)OCO3)C[C@H](OCCCCO)O1,"inconclusive [inhibitor, single point]",–
